Measured values as given in PubChem BioAssay (NCATS).
Inconclusive results, whose numbers are uncertain, are shown with a selection of clear calls. For part of these data: Where the call is inconclusive, the potency comes from a doubtful curve fit. Activity calls are given as the source filed them. Unless noted, calls follow the shape of the dose curve; as a rule, active = well fitted curve in the direction sought with a large enough effect; inconclusive = small, poorly fitted or top-dose-only effect, or another doubt; inactive = no such curve, though single readings can be large; an effect the other way counts as inactive or inconclusive.

Tests used:
[1] = test system: Zika virus NS2B-NS3 protease (linked construct); test: Primary screen NINDS Rhodamine qHTS for Zika virus inhibitors (AID 1347160); conditions: activity change, negative = inhibition: at 57.1 µM (top of the series) unless noted; also: % is scaled to controls: 0 for no effect and ±100 for the full control effect; nearly all actives have a fitted effect of over 55% in size
How it was run: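 Rhodamine110-peptide cleavage (1.5 µM substrate) by 25 nM linked NS2B-NS3 enzyme at pH 8.0 (Tris, Tween 20), after 15 min RT preincubation with compounds; 15-min fluorescence change normalized to controls and Hill-fitted.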

[2] = Primary fluorescence-based thiol-reactive (MSTI) qHTS assay for identification of artifact compounds. (AID 1845221);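 also: potency is read from the fitted curve at half-maximal effect; thiol-reactive compounds lower the probe fluorescence signal; nearly all actives have a fitted effect of over 65% in size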
How it was run: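 In PBS pH 7.4 with 2% DMSO, each compound met 4 uM MSTI for one hour at ambient temperature, shielded from light, before fluorescence detection.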

CRL-7250 = normal cell line; test: Cytotoxic Profiling of Annotated Libraries Using Quantitative High-Throughput Screening (AID 1296008); conditions: Five cell lines viability, CellTiter-Glo ATP luminescence, 48-72 h; max response: hits give low values; also: nearly all actives have a fitted effect of over 60% in size
How it was run: (§1)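 Compounds were pin-transferred onto cells and incubated 48 or 72 hr at 37 degree Celsius, 95% humidity. CellTiter-Glo was added, plates sat 10 min at room temperature, then ATP-coupled luminescence was imaged as the viability read-out.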

[3] = target: Peroxisome proliferator-activated receptor gamma (Homo sapiens) (UniProt P37231); test: qHTS assay for small molecule antagonists of peroxisome proliferator-activated receptor gamma signaling (AID 588537; active = well fitted inhibition curve with a large enough effect in the signal ratio, with a control signal flat, not every such curve was filed as active; inconclusive = small, poorly fitted or top-dose-only effect, or effect the other way, or a change in a side signal; the % refers to the signal ratio;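 also: reporter cells co-stimulated with 50 nM rosiglitazone agonist during compound treatment; % of control where 0% means no effect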); conditions: HEK293 PPARg-UAS-bla, beta-lactamase ratio, antagonist mode; activity, negative = inhibition: at 76.8 µM (top of the series)
Sequence of UniProt P37231 (P37231 whole entry, looked up): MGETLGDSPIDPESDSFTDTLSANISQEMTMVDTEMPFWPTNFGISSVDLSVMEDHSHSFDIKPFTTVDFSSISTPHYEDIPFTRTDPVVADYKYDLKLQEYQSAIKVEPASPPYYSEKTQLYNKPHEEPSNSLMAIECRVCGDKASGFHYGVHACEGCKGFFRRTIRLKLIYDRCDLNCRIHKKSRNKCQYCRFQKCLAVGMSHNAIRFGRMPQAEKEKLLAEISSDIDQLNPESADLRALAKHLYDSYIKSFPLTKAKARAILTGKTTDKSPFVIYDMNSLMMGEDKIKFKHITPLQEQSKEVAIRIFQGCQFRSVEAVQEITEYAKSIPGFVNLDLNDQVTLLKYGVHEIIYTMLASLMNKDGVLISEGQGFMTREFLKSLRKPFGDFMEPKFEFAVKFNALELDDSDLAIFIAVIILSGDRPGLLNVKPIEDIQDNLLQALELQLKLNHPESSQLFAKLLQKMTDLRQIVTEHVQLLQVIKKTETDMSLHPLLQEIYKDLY
How it was run: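 HEK293 cells, PPAR-gamma-UAS-bla, 3000/well. Pre-incubation 6-6.5 h, 37 C. Compound titration with rosiglitazone 50 nM final, 16 h. CCF4 dye, 2 h RT, dual-emission fluorescence.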

[4] = target: Vitamin D3 receptor (Homo sapiens) (UniProt P11473); test: qHTS assay for small molecule agonists of vitamin D receptor signaling (AID 588543; calls by dose curve;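 also: 0% = DMSO basal and 100% = reference agonist control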); conditions: HEK293T VDR-UAS-bla, beta-lactamase ratio, 16 h; activation: at 76.8 µM (top of the series)
Sequence of UniProt P11473 (P11473 whole entry, looked up): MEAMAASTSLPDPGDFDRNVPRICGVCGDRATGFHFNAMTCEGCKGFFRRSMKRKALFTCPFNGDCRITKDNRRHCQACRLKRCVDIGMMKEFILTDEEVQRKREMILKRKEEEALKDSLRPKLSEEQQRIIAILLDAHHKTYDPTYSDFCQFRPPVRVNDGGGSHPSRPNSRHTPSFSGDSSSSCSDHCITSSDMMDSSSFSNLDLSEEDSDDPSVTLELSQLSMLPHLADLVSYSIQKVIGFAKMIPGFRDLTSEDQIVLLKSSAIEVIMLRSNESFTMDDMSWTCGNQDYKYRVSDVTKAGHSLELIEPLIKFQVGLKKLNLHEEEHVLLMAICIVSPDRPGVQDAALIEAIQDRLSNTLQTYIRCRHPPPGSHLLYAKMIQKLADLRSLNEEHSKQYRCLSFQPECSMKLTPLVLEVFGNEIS
How it was run: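 Reporter cells (HEK293T, VDR-UAS-bla) were seeded in medium with 2% charcoal-stripped serum and incubated 5 h, then compounds in concentration series were added for 16 h at 37 °C. Stimulation was scaled between DMSO basal and 50 nM 1α,25-dihydroxyvitamin D3.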

[5] = target: Thyroid hormone receptor beta (Homo sapiens) (UniProt P10828); test: qHTS assay for small molecule agonists of thyroid hormone receptor beta signaling (AID 588545; calls by dose curve;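 also: 0% = DMSO only and 100% = 10 nM T3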); conditions: TR-UAS-bla GripTite HEK 293, beta-lactamase ratio, agonist mode, 18 h; activation: at 76.7 µM, percent of T3 response, DMSO as zero
Sequence of UniProt P10828 (P10828 whole entry, looked up): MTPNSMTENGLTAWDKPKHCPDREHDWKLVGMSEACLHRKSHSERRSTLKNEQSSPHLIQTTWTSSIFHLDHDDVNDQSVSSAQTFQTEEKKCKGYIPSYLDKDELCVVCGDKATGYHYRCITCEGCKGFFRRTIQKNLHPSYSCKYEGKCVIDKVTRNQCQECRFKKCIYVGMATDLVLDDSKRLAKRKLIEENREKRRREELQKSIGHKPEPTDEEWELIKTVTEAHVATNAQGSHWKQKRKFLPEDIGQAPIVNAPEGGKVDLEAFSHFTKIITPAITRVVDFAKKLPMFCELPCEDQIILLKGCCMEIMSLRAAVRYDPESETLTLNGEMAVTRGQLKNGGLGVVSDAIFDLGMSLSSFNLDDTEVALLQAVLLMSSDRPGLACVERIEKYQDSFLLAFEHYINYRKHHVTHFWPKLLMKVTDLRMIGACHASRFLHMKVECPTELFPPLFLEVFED
How it was run: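 Stimulation of a TR-driven beta-lactamase reporter was quantified in GripTite HEK 293 cells. Compound series ran for 18 hrs; curves were normalized to T3 and DMSO controls and fitted to yield EC50.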

[6] = target: Retinoic acid receptor RXR-alpha (Homo sapiens) (UniProt P19793); test: qHTS assay for small molecule antagonists of retinoid X receptor alpha signaling (AID 588546; active = well fitted inhibition curve with a large enough effect in the signal ratio, with a control signal flat, not every such curve was filed as active; inconclusive = small, poorly fitted or top-dose-only effect, or effect the other way, or a change in a side signal; inactive = no such curve, though single readings can be large or run the other way; the % refers to the signal ratio;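 also: cells stimulated with 9-cis-retinoic acid as agonist; % is scaled to controls: 0 for no effect and ±100 for the full control effect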); conditions: HEK293T RXRa-UAS-bla, beta-lactamase ratio, antagonist mode
Sequence of UniProt P19793 (P19793 whole entry, looked up): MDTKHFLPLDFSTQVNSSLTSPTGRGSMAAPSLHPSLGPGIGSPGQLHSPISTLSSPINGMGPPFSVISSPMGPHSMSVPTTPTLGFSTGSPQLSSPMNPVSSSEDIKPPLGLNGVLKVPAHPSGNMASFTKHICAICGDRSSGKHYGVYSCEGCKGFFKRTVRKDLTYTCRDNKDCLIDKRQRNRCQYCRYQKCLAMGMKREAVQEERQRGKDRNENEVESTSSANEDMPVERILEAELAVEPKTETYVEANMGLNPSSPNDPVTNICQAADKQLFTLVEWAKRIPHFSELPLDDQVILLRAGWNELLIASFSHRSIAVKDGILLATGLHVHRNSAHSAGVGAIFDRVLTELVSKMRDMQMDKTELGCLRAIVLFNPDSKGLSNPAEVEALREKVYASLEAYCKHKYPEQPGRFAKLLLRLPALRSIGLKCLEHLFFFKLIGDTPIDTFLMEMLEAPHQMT
How it was run: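 Beta-lactamase reporter inhibition, read as CCF4 fluorescence ratio (ex 405, em 460/530 nm) after 2 h at RT. HEK293T UAS-bla cells, 2500/well, were stimulated with 9-cis-RA at 500 or 100 nM final alongside test compound for 18 h at 37 C.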

[7] = target: Thyroid hormone receptor beta (Homo sapiens) (UniProt P10828); test: qHTS assay for small molecule antagonists of thyroid hormone receptor beta signaling (AID 588547; active = well fitted inhibition curve with a large enough effect in the signal ratio, with a control signal flat, not every such curve was filed as active; inconclusive = small, poorly fitted or top-dose-only effect, or effect the other way, or a change in a side signal; the % refers to the signal ratio;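 also: cells stimulated with 0.4 nM T3 agonist during compound exposure; % is scaled to controls: 0 for no effect and ±100 for the full control effect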); conditions: TR-UAS-bla HEK293, beta-lactamase ratio, antagonist mode, 18 h
How it was run: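 TR-UAS-bla GripTite HEK293 cells in 2% charcoal/dextran FBS medium were preincubated 4 h at 37 C, given compound (0.59 nM to 92 uM) plus 0.4 nM T3 (final) for 18 h, then CCF4 for 2 h at RT; Hill fit gave IC50.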

[8] = qHTS assay for small molecule agonists of the antioxidant response element (ARE) signaling pathway (AID 651741; active = well fitted activation curve with a large enough effect in the signal ratio; inconclusive = small, poorly fitted or top-dose-only effect, or effect the other way, or a change in a side signal; the % refers to the signal ratio; also: % of control where 0% means no effect); conditions: HepG2 ARE-bla reporter, beta-lactamase FRET ratio, 16 h; activation: at 96 µM (top of the series)
How it was run: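 Beta-lactamase reporter expression driven by the antioxidant response element in HepG2 cells was detected by fluorescence with LiveBLAzer B/G FRET substrate (2 h, room temperature) following 16 h compound treatment at 37 C.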

[9] = qHTS assay for small molecule activators of the p53 signaling pathway (AID 651743; active = well fitted activation curve with a large enough effect in the signal ratio, not every such curve was filed as active; inconclusive = small, poorly fitted or top-dose-only effect, or a change in a side signal; the % refers to the signal ratio; also: % of control where 0% means no effect); conditions: HCT-116 p53RE-bla, beta-lactamase FRET ratio, 16 h; activation: hits give high values
How it was run: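 Here HCT-116 cells with an integrated p53-responsive beta-lactamase gene were incubated with compounds (16 hours, 37 C) after a 5-hour plating period; beta-lactamase activity was detected as fluorescence intensity via B/G FRET substrate.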

[10] = qHTS of pediatric cancer cell lines to identify multiple opportunities for drug repurposing: Primary screen for SK-N-MC cells (AID 1347093); conditions: SK-N-MC viability, CellTiter-Glo luminescence, 48 h; activity change, negative = cytotoxic: at 46 µM (top of the series);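 also: plate controls were DMSO neutral control for no effect and bortezomib for full effect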
How it was run: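 Metabolically active cells were quantified by ATP-dependent luminescence (CellTiter-Glo, 15 min at room temperature) following 48 h treatment. Cells had been plated at 500-1,000 per well and settled for 5 h beforehand.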

[11] = qHTS of pediatric cancer cell lines to identify multiple opportunities for drug repurposing: Primary screen for U-2 OS cells (AID 1347096);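 also: plate controls were DMSO wells for no effect and bortezomib positive control wells for full effect; nearly all actives have a fitted effect of over 50% in size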
How it was run: (§2)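 Cells (500-1,000/well) in growth media were settled 5 h at 37 degrees C, then given compounds for 48 h. Viability was read as CellTiter-Glo luminescence. Primary runs used MIPE at 11 points (0.78 nM-46 µM) and NPC at 8 points (0.59 nM-46 µM); follow-ups used 11 points.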

[12] = qHTS of pediatric cancer cell lines to identify multiple opportunities for drug repurposing: Primary screen for Rh18 cells (AID 1347102); also: % is scaled to controls: 0 for no effect and ±100 for the full control effect; nearly all actives have a fitted effect of over 65% in size
How it was run: as §2

[13] = qHTS of pediatric cancer cell lines to identify multiple opportunities for drug repurposing: Primary screen for OHS-50 cells (AID 1347103);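 also: plate controls were DMSO neutral control for no effect and bortezomib positive control for full effect; nearly all actives have a fitted effect of over 40% in size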
How it was run: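 Cells (500-1,000/well) rested 5 h, then received compounds for 48 h; metabolically active cells were measured by CellTiter-Glo luminescence. Final concentrations spanned up to 46 µM (MIPE, 11-point) or 0.59 nM-46 µM (NPC, 8-point) in primary screens, 11-point in follow-ups.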

[14] = qHTS of pediatric cancer cell lines to identify multiple opportunities for drug repurposing: Primary screen for control Hh wild type fibroblast cells (AID 1347106);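 also: % is scaled to controls: 0 for no effect and ±100 for the full control effect; a drop in luminescence marks cytotoxicity and a rise apparent proliferation; nearly all actives have a fitted effect of over 55% in size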
How it was run: as §2

[15] = test system: Zika virus NS2B-NS3 protease; test: Primary screen GU AMC qHTS for Zika virus inhibitors (AID 1347154);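 also: 0% = no-inhibitor control and -100% = no-enzyme control; nearly all actives have a fitted effect of over 70% in size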
How it was run: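 Unlinked Zika NS2B hydrophilic domain/NS3 protease domain noncovalent complex (25 nM final) in 10 mM Tris-HCl pH 8.0, 0.01% Tween 20, with AMC peptide substrate. Fluorescence (ex 340, em 450 nm) change over 15 min, room temperature; percent inhibition fitted to 4-parameter Hill equation.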

[16] = Primary qHTS for small molecule stabilizers of the endoplasmic reticulum resident proteome: Secreted ER Calcium Modulated Protein (SERCaMP) assay (AID 1508630); conditions: SH-SY5Y GLuc-SERCaMP (Gaussia luciferase released on ER calcium loss) secretion, thapsigargin, luminescence; activity change, negative = inhibition: at 38.4 µM (top of the series) unless noted; also: potency is read from the fitted curve at half-maximal effect
How it was run: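 The SH-SY5Y reporter protocol was run at 3 concentrations up to 38.3 uM (primary) or 11 concentrations (follow-up): 16 h compound, 100 nM thapsigargin for 4 h, then extracellular luciferase luminescence.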

[17] = target: Cytochrome P450 2C9 (Homo sapiens) (UniProt P11712); test: Cytochrome P450 family 2 subfamily C member 9 (CYP2C9) small molecule antagonists: luciferase biochemical (cell-free) qHTS assay (AID 1645842; active = well fitted curve in the direction sought with a large enough effect in the repeat runs; inconclusive = weak or mixed curves; inactive = no such curve, though single readings can be large; an effect the other way counts as inactive or inconclusive; also: % is scaled to controls: 0 for no effect and ±100 for the full control effect; nearly all actives have a fitted effect of over 55% in size)
Sequence of UniProt P11712 (P11712 whole entry, looked up, canonical isoform): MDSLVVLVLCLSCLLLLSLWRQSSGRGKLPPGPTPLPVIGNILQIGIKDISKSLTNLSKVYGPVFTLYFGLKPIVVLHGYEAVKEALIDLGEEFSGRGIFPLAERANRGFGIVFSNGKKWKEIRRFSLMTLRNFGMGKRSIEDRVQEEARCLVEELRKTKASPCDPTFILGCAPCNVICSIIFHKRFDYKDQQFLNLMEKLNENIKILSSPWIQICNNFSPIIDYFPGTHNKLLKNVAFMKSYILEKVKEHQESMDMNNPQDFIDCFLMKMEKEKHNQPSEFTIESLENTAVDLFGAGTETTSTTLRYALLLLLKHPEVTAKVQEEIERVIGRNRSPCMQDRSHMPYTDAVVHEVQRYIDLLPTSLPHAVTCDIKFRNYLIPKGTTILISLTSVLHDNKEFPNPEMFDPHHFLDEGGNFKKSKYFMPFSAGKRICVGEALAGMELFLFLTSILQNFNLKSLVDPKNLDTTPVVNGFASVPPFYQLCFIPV
How it was run: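 P450-Glo CYP2C9 system: proluciferin substrate with enzyme in mix containing 0.4% BSA, 10 min at room temperature, then NADPH regeneration solution added and incubated 1 h at 37C. Detection reagent stopped reaction; luminescence read after 20 min as RLU.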

HEK293 = test: Cytotoxic Profiling of Annotated Libraries Using Quantitative High-Throughput Screening (AID 1296008); conditions: Five cell lines viability, CellTiter-Glo ATP luminescence, 48-72 h; max response: hits give low values; also: nearly all actives have a fitted effect of over 60% in size
How it was run: as §1

C33A = test: Primary qHTS to identify gynecologic anti-cancer compounds using libraries of approved drugs and bioactive compounds (AID 1345084); conditions: Gynecologic cancer cell panel viability, ATPlite luminescence, 48 h; series mostly up to 57.5 µM; also: nearly all actives have a fitted effect of over 55% in size; also: potency is read from the fitted curve at half-maximal effect
How it was run: (§3)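 Five-concentration response, 48 h; readout is ATP-driven luciferase luminescence.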

JEG-3 = test: as above; conditions: Gynecologic cancer cell panel viability, ATPlite luminescence, 48 h; series mostly up to 57.5 µM
How it was run: as §3

SKOV3 = test: as above; conditions: Gynecologic cancer cell panel viability, ATPlite luminescence, 48 h; series mostly up to 57.5 µM
How it was run: as §3

MKL-1 = test: qHTS assay to identify novel small-molecules to repurpose for Merkel cell carcinoma treatment (AID 1296009); conditions: MCC and control cell lines, CellTiter-Glo viability, 72 h; activity change, negative = cytotoxicity: at 46 µM (top of the series); also: % is scaled to controls: 0 for no effect and ±100 for the full control effect; nearly all actives have a fitted effect of over 60% in size
How it was run: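 Luminescence from CellTiter-Glo, read 10 min after addition at room temperature, reported viability following a 72 hr, 37 degree celsius treatment with NPC or MIPE compounds in titration; values normalized to plate controls.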

[18] = test system: Zika virus NS2B-NS3 protease (unlinked complex); test: Primary screen GU Rhodamine qHTS for Zika virus inhibitors: Unlinked NS2B-NS3 protease assay (AID 1347159); also: potency is read from the fitted curve at half-maximal effect; nearly all actives have a fitted effect of over 60% in size
How it was run: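 Percent inhibition came from the 15-min rise in Rhodamine110 fluorescence (1.5 microM substrate, ~15% conversion), normalized to no-inhibitor and no-enzyme wells and Hill-fitted. Unlinked protease, 25 nM, pH 8.0 Tris buffer; compounds up to 114 microM, 15-min preincubation.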

[19] = target: Nuclear receptor subfamily 1 group I member 3 (Homo sapiens) (UniProt Q14994); test: Primary qHTS for antagonist of constitutive androstane receptor (CAR) against the NCATS DSHEA and TCM libraries (AID 1794836)
Sequence of UniProt Q14994 (Q14994 whole entry, looked up): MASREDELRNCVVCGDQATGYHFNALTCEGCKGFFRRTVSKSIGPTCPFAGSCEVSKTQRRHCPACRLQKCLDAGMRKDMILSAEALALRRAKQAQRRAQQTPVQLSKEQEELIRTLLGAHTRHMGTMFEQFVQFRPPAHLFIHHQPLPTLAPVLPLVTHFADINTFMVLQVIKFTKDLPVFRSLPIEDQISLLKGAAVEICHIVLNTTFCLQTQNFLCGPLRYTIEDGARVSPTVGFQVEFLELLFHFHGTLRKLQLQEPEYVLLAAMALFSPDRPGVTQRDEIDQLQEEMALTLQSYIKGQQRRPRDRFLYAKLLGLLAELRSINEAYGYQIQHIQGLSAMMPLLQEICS
How it was run: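 HepG2 cells stably carrying hCAR and a CYP2B6 luciferase reporter (2,500 cells/well) attached for 5 h, then received compounds with 48 uM CITCO for 24 h at 37C. ONE-Glo luminescence read antagonism; CellTiter-Fluor (405/540 nm) gave viability.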

[20] = target: Cytochrome P450 2C9 (Homo sapiens) (UniProt P11712); test: qHTS for inhibitors of CYP2C9 against the NCATS DSHEA and TCM libraries (AID 1919973);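 also: luminogenic pro-luciferin CYP2C9 substrate turned into luciferin with NADPH regeneration; % is scaled to controls: 0 for no effect and ±100 for the full control effect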
How it was run: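 Isoform-specific enzyme and substrate levels; enzyme-free wells as background. Reaction: 1x NADPH regenerating system, 30-45 min, room temperature, shielded from light; luminescent detection reagent added, 30 min.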

[21] = target: Cytochrome P450 1A2 (Homo sapiens) (UniProt P05177); test: qHTS for inhibitors of CYPIA2 against the NCATS DSHEA and TCM libraries (AID 1919976);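 also: light from luciferin formed by CYP1A2 from a pro-luciferin substrate; % is scaled to controls: 0 for no effect and ±100 for the full control effect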
Sequence of UniProt P05177 (P05177 whole entry, looked up): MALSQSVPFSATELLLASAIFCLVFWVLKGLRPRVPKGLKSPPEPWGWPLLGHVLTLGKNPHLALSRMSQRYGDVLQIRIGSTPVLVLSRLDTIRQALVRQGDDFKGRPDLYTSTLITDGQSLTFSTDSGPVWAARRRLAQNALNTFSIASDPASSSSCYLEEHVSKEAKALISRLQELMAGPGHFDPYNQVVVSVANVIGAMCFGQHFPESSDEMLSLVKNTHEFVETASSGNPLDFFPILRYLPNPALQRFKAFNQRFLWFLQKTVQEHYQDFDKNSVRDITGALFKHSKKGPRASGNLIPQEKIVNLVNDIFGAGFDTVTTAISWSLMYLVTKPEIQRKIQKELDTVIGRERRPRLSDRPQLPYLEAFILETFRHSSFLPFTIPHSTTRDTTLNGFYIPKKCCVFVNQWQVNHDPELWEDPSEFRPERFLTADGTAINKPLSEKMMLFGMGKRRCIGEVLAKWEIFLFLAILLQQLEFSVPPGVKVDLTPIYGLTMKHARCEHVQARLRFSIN
How it was run: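 Furafylline served as the plate control. Compounds met CYP1A2 and pro-luciferin substrate 15 min before NADPH regeneration solution (1x) was added; after 30-45 min at RT, P450-Glo reagent was added for 30 min and luminescence was measured.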

[22] = target: Nuclear receptor subfamily 1 group I member 2 (Homo sapiens) (UniProt O75469); test: Dual reporter qHTS for antagonist of Pregnane X Receptor (hPXR) against the NCATS DSHEA and TCM libraries: Luminescence Readout (AID 1920060); conditions: hPXR dual reporter cells, luciferase luminescence, antagonist mode;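 also: HepG2 cells carrying hPXR luciferase reporter stimulated with rifampicin at 2 µM; potency is read from the fitted curve at half-maximal effect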
Sequence of UniProt O75469 (O75469 whole entry, looked up): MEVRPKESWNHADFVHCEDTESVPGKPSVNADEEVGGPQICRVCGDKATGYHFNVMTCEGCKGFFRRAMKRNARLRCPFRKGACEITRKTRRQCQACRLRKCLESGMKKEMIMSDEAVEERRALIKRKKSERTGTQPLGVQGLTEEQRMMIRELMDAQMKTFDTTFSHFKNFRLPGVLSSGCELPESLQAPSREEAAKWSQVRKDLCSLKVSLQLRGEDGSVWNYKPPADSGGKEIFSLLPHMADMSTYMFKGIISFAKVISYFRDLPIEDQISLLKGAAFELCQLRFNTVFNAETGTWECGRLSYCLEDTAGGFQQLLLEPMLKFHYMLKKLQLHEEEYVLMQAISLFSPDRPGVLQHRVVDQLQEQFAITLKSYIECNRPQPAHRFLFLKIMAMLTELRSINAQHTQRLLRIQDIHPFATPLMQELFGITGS
How it was run: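 In antagonist mode, 2 uM rifampicin was added to hPXR-Luc HepG2 cells alongside test substances, incubated 24 h at 37 C; luminescence gave reporter activity, and CellTiter-Fluor fluorescence (405/540 nm) gave viability.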
Tags tell the direction and shape of the fitted curve.

OC[C@H]1O[C@@H](OCc2ccccc2)[C@H](O[C@@H]2OC[C@@H](O)[C@H](O)[C@H]2O)[C@@H](O)[C@@H]1O
inconclusive: Potency [2] 13 µM [inhibitor, partial curve]
inactive: Potency [1] | outcome (CRL-7250)

CN1C(=O)c2ccccc2C1=O
inconclusive: max response [6] -25.2% | Potency [16] 50.1 µM [inhibitor, single point] | Potency (JEG-3) 14.1 µM [rising, single point] | Potency (SKOV3) 20 µM [rising, partial curve, poor fit]
inactive: Potency [3] | Potency [4] | activation [5] -0.366% | activity change % (negative = inhibition) [7] -4.79% | Potency [8] | activation [9] 8.47% | Potency [10] | Potency [11] | Potency [12] | Potency [13] | Potency [14] | Potency [15] | Potency [17] | max response (HEK293) -4.39% | Potency (C33A) | Potency (MKL-1)

O=C(OCC1=C[C@@H](O)[C@@H]2C=CO[C@@H](O[C@@H]3O[C@H](CO)[C@@H](O)[C@H](O)[C@H]3O)[C@H]12)c1ccc(O)cc1
inconclusive: Potency [18] 31.6 µM [inhibitor, partial curve] | Potency [22] 5.01 µM [inhibitor, partial curve, poor fit]
active: Potency [2] 10.3 µM
inactive: Potency [19] | Potency [20] | Potency [21] | max response (CRL-7250) -4.11%
